Experimental findings from publication PMC12820563, “FoxP3 forms a head-to-head dimer in vivo and stabilizes its multimerization on adjacent microsatellites” are described below.

Some of the results follow.

The target in the assay is T1, MBP-FoxP1dN (Mus musculus, UniProt P58462 326-579).
T1 sequence: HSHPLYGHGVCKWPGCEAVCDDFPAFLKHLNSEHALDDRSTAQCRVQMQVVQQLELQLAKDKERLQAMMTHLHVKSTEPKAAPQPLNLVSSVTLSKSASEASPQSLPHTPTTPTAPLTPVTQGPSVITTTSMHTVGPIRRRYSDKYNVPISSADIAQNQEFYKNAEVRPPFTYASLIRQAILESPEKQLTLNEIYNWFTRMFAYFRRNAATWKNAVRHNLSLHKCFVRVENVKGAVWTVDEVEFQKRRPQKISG
As to the kind of experiment: PD-seq (MBP pull-down with sequencing); 20 mM Tris-HCl pH 7.5, 100 mM NaCl, 1.5 mM MgCl2, 0.4 uM protein, 0.1 uM dsDNA library, 30 min, room temperature, amylose pull-down; high values mean tight binding. To be noted: protein: recombinant; tags: His6-MBP; chain copies: 2; dsDNA, one strand shown. The method, boiled down:
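Binding is given as reads-per-million enrichment, pull-down over input, with replicates pooled. The bait was an N-terminus-lacking mouse FoxP3 or FoxP1 fragment with a His6-MBP tag, expressed in E. coli and used at 0.4 µM with 0.1 µM Klenow-filled degenerate double-stranded DNA library for 30 min at room temperature in Tris pH 7.5 buffer with NaCl and MgCl2. Amylose resin pull-down with three washes was followed by proteinase K release, PCR barcoding and Illumina sequencing.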
“GATGATTGTTCTCCCAGCTGATGAATTCACGGTATCGAGTAAACAAATTTTCCTAATCTTTCTGTTCAAGCGCCATCTAC”: the binding signal was 0.867 RPM ratio (pull-down/input).

In the case of “GATGATTGTTCTCCCAGCTGATGAATTTGTTGGTTCGAGTAAACAAATTTTCCTAATCTTTCTGTTCAAGCGCCATCTAC”, the binding signal is 2.02 RPM ratio (pull-down/input).

As for “GATGATTGTTCTCCCAGCTGATGAATTCTAATGCTCGAGTAAACAAATTTTCCTAATCTTTCTGTTCAAGCGCCATCTAC”, the binding signal was 0.962 RPM ratio (pull-down/input).

“GATGATTGTTCTCCCAGCTGATGAATTGATCGCATCGAGTAAACAAATTTTCCTAATCTTTCTGTTCAAGCGCCATCTAC”: the binding signal is 1.26 RPM ratio (pull-down/input).

In the case of “GATGATTGTTCTCCCAGCTGATGAATTATATAATTCGAGTAAACAAATTTTCCTAATCTTTCTGTTCAAGCGCCATCTAC”, the binding signal was 1.09 RPM ratio (pull-down/input).

In the case of “GATGATTGTTCTCCCAGCTGATGAATTGCGTATCTCGAGTAAACAAATTTTCCTAATCTTTCTGTTCAAGCGCCATCTAC”, the binding signal was 1.12 RPM ratio (pull-down/input).

On to “GATGATTGTTCTCCCAGCTGATGAATTATACGGTTCGAGTAAACAAATTTTCCTAATCTTTCTGTTCAAGCGCCATCTAC”, for which the binding signal is 0.951 RPM ratio (pull-down/input).

On to “GATGATTGTTCTCCCAGCTGATGAATTGACCTAATCGAGTAAACAAATTTTCCTAATCTTTCTGTTCAAGCGCCATCTAC”, for which the binding signal is 1.14 RPM ratio (pull-down/input).

Consider “GATGATTGTTCTCCCAGCTGATGAATTGAAGTATTCGAGTAAACAAATTTTCCTAATCTTTCTGTTCAAGCGCCATCTAC”, for which the binding signal was 1.04 RPM ratio (pull-down/input).

Turning to “GATGATTGTTCTCCCAGCTGATGAATTTTGTAACTCGAGTAAACAAATTTTCCTAATCTTTCTGTTCAAGCGCCATCTAC”, the binding signal was 1.1 RPM ratio (pull-down/input).

With “GATGATTGTTCTCCCAGCTGATGAATTTCACCCCTCGAGTAAACAAATTTTCCTAATCTTTCTGTTCAAGCGCCATCTAC”, the binding signal was 0.863 RPM ratio (pull-down/input).

“GATGATTGTTCTCCCAGCTGATGAATTTTGAAAGTCGAGTAAACAAATTTTCCTAATCTTTCTGTTCAAGCGCCATCTAC”: the binding signal was 0.918 RPM ratio (pull-down/input).

In the case of “GATGATTGTTCTCCCAGCTGATGAATTTTGGTACTCGAGTAAACAAATTTTCCTAATCTTTCTGTTCAAGCGCCATCTAC”, the binding signal was 0.964 RPM ratio (pull-down/input).

Turning to “GATGATTGTTCTCCCAGCTGATGAATTAGTCAGGTCGAGTAAACAAATTTTCCTAATCTTTCTGTTCAAGCGCCATCTAC”, the binding signal was 0.84 RPM ratio (pull-down/input).

With “GATGATTGTTCTCCCAGCTGATGAATTGGCGTTTTCGAGTAAACAAATTTTCCTAATCTTTCTGTTCAAGCGCCATCTAC”, the binding signal was 1.15 RPM ratio (pull-down/input).

Consider “GATGATTGTTCTCCCAGCTGATGAATTAGGTAAATCGAGTAAACAAATTTTCCTAATCTTTCTGTTCAAGCGCCATCTAC”, for which the binding signal was 1.36 RPM ratio (pull-down/input).

For the sequence “GATGATTGTTCTCCCAGCTGATGAATTATCGCCCTCGAGTAAACAAATTTTCCTAATCTTTCTGTTCAAGCGCCATCTAC”, the binding signal is 0.859 RPM ratio (pull-down/input).

As to “GATGATTGTTCTCCCAGCTGATGAATTTTCTAAATCGAGTAAACAAATTTTCCTAATCTTTCTGTTCAAGCGCCATCTAC”, the binding signal is 1.15 RPM ratio (pull-down/input).
